Experimental data as given in PMC10668032.
This is one part of the list. At the low end of the ranking, values are background and their order means little.

The sequences below were run against SIX1 homeodomain (reference allele) (UniProt Q15475) (assay: universal protein binding microarray). Details: Universal all-10-mer PBM (8x60K, AMADID 030236), 300 nM GST-tagged protein, Alexa Fluor 488 anti-GST; buffer, salt, pH and temperature not stated; high values mean tight binding; most listed sequences are background and not binding sites; double strand, one strand shown.

| Sequence | binding signal [E-score] |
| --- | --- |
| CTGAATGA | 0.0226 |
| CCGCTTTC | -0.131 |
| AACTTCAA | -0.18 |
| ATCAGATG | 0.319 |
| AGAGAATG | -0.161 |
| CCCCCAAC | -0.103 |
| ACCAGACG | -0.0492 |
| ACGCAGGC | 0.0252 |
| AAGAGCAG | -0.0965 |
| AAGTCCAC | -0.269 |
| AACGTTGT | -0.199 |
| TACGGCTA | 0.185 |
| CGGTGCAC | -0.0361 |
| CGACGACG | -0.259 |
| AGGTTCTA | 0.0305 |
| GTAGCTAC | -0.114 |
| CTTACACA | -0.0023 |
| AAGCTCCA | -0.154 |
| ACCCTTCG | -0.106 |
| TACAAGGA | 0.136 |
| CCCGGCGA | 0.0761 |
| AATATCGA | 0.241 |
| GATAGCGA | 0.251 |
| CGACCACC | -0.0471 |
| GCGTTTGA | -0.301 |

| Sequence | binding signal [E-score] |
| --- | --- |
| CCGTAGCA | 0.0604 |
| GGTCGGAC | -0.0598 |
| CCCTAGTA | 0.106 |
| CTGCTTAC | -0.168 |
| ATAAGGGG | 0.00055 |
| AAAACCTC | -0.0345 |
| GACCGCCC | -0.189 |
| CATAATTA | 0.0477 |
| AGTCAATG | 0.008 |
| AGAGTACA | -0.0908 |
| ATTCATAA | -0.0344 |
| ACCCACAA | 0.004 |
| AGACTCAT | -0.0207 |
| CTAATGAG | -0.0145 |
| GGGAAAAA | -0.177 |
| CGAGGGCC | 0.0254 |
| TTGAACAA | -0.121 |
| ACGATGAC | -0.0768 |
| AAATCGTT | -0.196 |
| GCGGCGAC | -0.162 |
| GGGGCTAC | 0.00443 |
| AGCGGGTC | -0.104 |
| CCGACACA | -0.0231 |
| ACGCAACT | -0.18 |
| ATCAGGAG | 0.188 |

| Sequence | binding signal [E-score] |
| --- | --- |
| AAAAACTG | -0.235 |
| ACTCCTGC | -0.0736 |
| ACCTATGG | -0.0785 |
| ATGCCTGA | -0.0148 |
| CCTGCTGA | 0.0482 |
| CCGGAACG | -0.177 |
| GAAGATCA | 0.196 |
| ACCAAAAT | 0.119 |
| CTTTCCCC | -0.148 |
| AATCCTCG | -0.155 |
| GGTAGGTA | -0.007 |
| ACCGCGTG | 0.127 |
| ACTCAGGG | 0.266 |
| AGGCCAAT | -0.0338 |
| CCCATCAA | -0.0956 |
| ACCGGCCC | -0.0241 |
| CATCCCTC | 0.111 |
| ATCTGTCA | 0.208 |
| GAGCGAGA | 0.108 |
| CATCGTGG | -0.121 |
| GAACGACA | -0.079 |
| CTCTTTCA | -0.161 |
| CGCCCGGC | -0.0259 |
| CGACGGTA | -0.00819 |
| AGCTGTTC | -0.215 |

| Sequence | binding signal [E-score] |
| --- | --- |
| CTATACCC | 0.369 |
| GCACGCCA | -0.164 |
| AGGTAGAC | 0.111 |
| GCTAGATA | 0.255 |
| TCGCGTCA | -0.0385 |
| ACTCTAAT | -0.0388 |
| AACCGATC | 0.335 |
| CGGGCACG | -0.151 |
| TACATTAA | 0.125 |
| TATCTCGA | 0.248 |
| CAAGAGCC | -0.0786 |
| ACTACGTC | -0.16 |
| TCCTGCGA | 0.0828 |
| GGATTAAA | 0.231 |
| CTTCAGAC | -0.153 |
| TAGGTCAA | -0.0979 |
| ACGAGGTG | 0.0574 |
| AAGGGCGC | -0.27 |
| CCACAAGG | -0.2 |
| TAAGAACA | -0.00693 |
| ATGTCCAC | -0.0876 |
| AACAAGCT | -0.283 |
| AAGAGACG | 0.00789 |
| AGCATTCC | -0.126 |
| CTGTCAAG | -0.135 |

| Sequence | binding signal [E-score] |
| --- | --- |
| AGGGTTCG | -0.17 |
| ATCGCCGA | 0.19 |
| ATTAAAGG | -0.0467 |
| ACGTCAGT | -0.112 |
| AAGTGGAG | -0.0575 |
| CATTTCAG | 0.0112 |
| CATGGCCC | -0.0607 |
| CGGGTGAG | 0.111 |
| CCGGTAGA | 0.151 |
| AGTGGGGA | 0.0779 |
| AATCTTCG | -0.098 |
| CATCACAG | -0.0165 |
| TCGCTGAA | 0.1 |
| AAAGTCGA | -0.207 |
| ACGAGGGC | -0.00505 |
| AGGAAGGG | -0.294 |
| AGAAGCGC | -0.139 |
| AGGTTTAC | -0.0216 |
| CTTGGGTA | 0.0812 |
| AATATACT | 0.0741 |
| CACGAAGC | -0.142 |
| AGTAGATG | 0.139 |
| CTTTTTGC | -0.231 |
| CGTTATGC | -0.0637 |
| GTCCACTA | -0.155 |

| Sequence | binding signal [E-score] |
| --- | --- |
| AAGGCTGT | 0.00683 |
| ACGCTGCT | -0.231 |
| ACGTAAGA | -0.167 |
| ATGCTAAC | -0.127 |
| GGCTAGCA | -0.182 |
| CGGCAGAC | -0.0937 |
| CGAGACCC | 0.116 |
| CGGGATGA | 0.159 |
| ACACGAAA | -0.0708 |
| ACCAACGA | 0.0145 |
| AGCGTATG | 0.0372 |
| ACTAATCT | 0.192 |
| AGCCAGTG | -0.257 |
| CGAGGGCG | -0.162 |
| TGGCTACA | 0.0627 |
| CGTGATTA | -0.0121 |
| AGACTCGA | -0.247 |
| GGCAAGCA | -0.263 |
| AACAAGGA | 0.133 |
| ATTGCGGG | 0.0992 |
| GGTTCTAA | -0.0146 |
| CCAGCAAG | -0.0893 |
| ACAGCTTG | -0.0592 |
| AAGCTTGC | -0.287 |
| ATCTCGGG | 0.272 |

| Sequence | binding signal [E-score] |
| --- | --- |
| ATCGCGTC | 0.201 |
| ATCACGTG | 0.113 |
| AGAAGGGA | 0.131 |
| GGCCCTAA | -0.213 |
| CGGGTGCC | -0.0226 |
| CCGCGCCG | 0.0988 |
| AGCAAAAG | -0.185 |
| AGCTTATA | 0.0649 |
| CGCTACGC | -0.195 |
| CTGAATAC | 0.0928 |
| GCGGAGAA | -0.0801 |
| AATAAGGC | -0.0652 |
| CCGGGGTA | 0.282 |
| CCCCCTCG | -0.00232 |
| ACCATTCG | -0.139 |
| TAGCAATA | 0.121 |
| AAACGAGT | 0.0864 |
| ACGCAGCA | -0.139 |
| CCGTCAGA | -0.0812 |
| ACCGGAGG | 0.126 |
| ACAGATGG | -0.0262 |
| CAAGAAAC | -0.103 |
